# Laboratory results taken from the antibiotic and cytotoxicity screens of Wong et al. (2023).
# The other results are listed elsewhere or left out.
# Assays:
# [1] = tested on: HSkMC (human skeletal muscle cells); test: cytotoxicity call (relative viability < 0.9); details: 10 µM
# [2] = tested on: HepG2; test: cytotoxicity call (relative viability < 0.9); details: 10 µM
# [3] = tested on: S. aureus RN4220; test: growth inhibition call (relative growth <= 0.2); details: 50 µM
Structure (SMILES),cytotoxicity call [1],cytotoxicity call [2],growth inhibition call [3]
O=S(=O)(O)c1ccc2c(c1)cc(S(=O)(=O)O)c1nn(-c3ccc(/C=C/c4ccc(-n5nc6c(S(=O)(=O)O)cc7cc(S(=O)(=O)O)ccc7c6n5)cc4S(=O)(=O)O)c(S(=O)(=O)O)c3)nc12,inactive,inactive,inactive
CC(C)NC(=O)N(C)C[C@H]1OCCCC[C@@H](C)Oc2ccc(NS(C)(=O)=O)cc2C(=O)N([C@H](C)CO)C[C@@H]1C,inactive,inactive,inactive
CC(C)NC(=O)N(C)C[C@@H]1OCc2cnnn2CCCC(=O)N([C@H](C)CO)C[C@H]1C,inactive,inactive,inactive
C[C@@H]1CN([C@H](C)CO)C(=O)c2cc(NC(=O)CCN3CCOCC3)ccc2O[C@H]1CN(C)CC1CCCCC1,inactive,inactive,inactive
COc1ccccc1C#Cc1cnc2c(c1)C(=O)N([C@H](C)CO)C[C@@H](C)[C@H](CN(C)C(=O)c1ccc3c(c1)OCO3)O2,inactive,inactive,inactive
Cc1ccc(C(=O)N(CC(N)=O)CC(N)=O)cc1,inactive,inactive,inactive
C[C@@H]1CCCCO[C@@H](CN(C)C(=O)Nc2ccc(F)cc2)[C@@H](C)CN([C@H](C)CO)C(=O)c2cc(NC(=O)CCCCCC(=O)Nc3ccccc3N)ccc2O1,inactive,inactive,inactive
C[C@H]1CN([C@@H](C)CO)C(=O)c2cc(NC(=O)CCN3CCOCC3)ccc2O[C@H]1CN(C)C(=O)Nc1ccccc1,inactive,inactive,inactive
CNC(=O)CN1CCOC[C@]2(CCCN(C(C)=O)C2)C1,inactive,inactive,inactive
C[C@H](CO)N1C[C@H](C)[C@@H](CN(C)S(=O)(=O)c2cn(C)cn2)Oc2c(NC(=O)Cc3ccccc3)cccc2C1=O,inactive,inactive,inactive
COc1cc2c(cc1-c1coc3c4c(ccc3c1=O)OC(C)(C)CC4)OCO2,inactive,inactive,inactive
COCC#Cc1ccc2c(c1)O[C@@H](CN(C)C(=O)c1ccccc1)[C@H](C)CN([C@H](C)CO)S2(=O)=O,inactive,inactive,inactive
COc1ccc(CNC(=O)C[C@@H]2CC[C@H]3[C@@H](COc4ccc(NC(=O)C(C)C)cc4C(=O)N3C)O2)cc1,inactive,inactive,inactive
C=C1CC(=O)C2=C(C)C[C@H](O[C@@H]3O[C@H](CO)[C@@H](O)[C@H](O)[C@H]3O)[C@H]3C(=C)C(=O)O[C@@H]3[C@@H]12,inactive,inactive,inactive
C=CCOC(=O)[C@@H]1[C@@H]2C=C[C@@]3(O2)[C@@H]1C(=O)N(CCCCCCO)[C@H]3C(=O)N(CC=C)Cc1ccccc1,active,active,inactive
C[C@@H]1CN([C@H](C)CO)C(=O)c2ccccc2-c2ccccc2CO[C@@H]1CN(C)S(=O)(=O)c1ccc(C(F)(F)F)cc1,inactive,inactive,inactive
COCC#Cc1cnc2c(c1)C(=O)N([C@H](C)CO)C[C@H](C)[C@H](CN(C)S(=O)(=O)c1cn(C)cn1)O2,inactive,inactive,inactive
CCS(=O)(=O)Nc1ccc2c(c1)C(=O)N(C)[C@@H]1CC[C@@H](CC(=O)N3CCN(C)CC3)O[C@H]1CO2,inactive,inactive,inactive
Cc1ccc(S(=O)(=O)Nc2ccc3c(c2)C(=O)N([C@@H](C)CO)C[C@H](C)[C@H](CN(C)C(=O)Nc2c(C)noc2C)OCCCC[C@H](C)O3)cc1,inactive,inactive,inactive
C[C@H]1CN([C@@H](C)CO)C(=O)c2cc(NC(=O)Nc3cccc4ccccc34)ccc2O[C@@H]1CN(C)S(=O)(=O)c1ccc(F)cc1,inactive,inactive,inactive
C[C@@H]1CN([C@@H](C)CO)C(=O)Cc2cc(NC(=O)c3ccncc3)ccc2O[C@H]1CN(C)S(C)(=O)=O,inactive,inactive,inactive
CC=Cc1ccc2n(c1=O)C[C@@H]1[C@@H](CO)[C@H](C(=O)NC3CCC3)N(S(C)(=O)=O)[C@H]21,inactive,inactive,inactive
COc1ccc(NC(=O)Nc2ccc3c(c2)C(=O)N([C@H](C)CO)C[C@@H](C)[C@@H](CN(C)C(=O)Nc2ccc(OC)cc2)OCCCC[C@@H](C)O3)cc1,inactive,inactive,inactive
CC(C)NC(=O)N(C)C[C@@H]1Oc2ccc(NC(=O)Cc3ccccc3)cc2CC(=O)N([C@@H](C)CO)C[C@@H]1C,inactive,inactive,inactive
Cc1noc(C)c1NC(=O)Nc1ccc2c(c1)C(=O)N([C@@H](C)CO)C[C@@H](C)[C@H](CN(C)Cc1ccc(C(=O)Nc3ccccc3N)cc1)O2,inactive,inactive,inactive
C[C@@H]1CN([C@@H](C)CO)C(=O)c2cc(NC(=O)Nc3ccc(F)cc3)ccc2O[C@@H]1CN(C)C(=O)Nc1ccc(C(F)(F)F)cc1,active,inactive,inactive
